Data from the supplement of paper PMC10338343.
± gives the standard deviation. Whole data set: some 6,600 sequences, median “pre-steady-state target cleavage rate” near 0.07, cut for the highest 2% near 0.72. The entries are a selection whose mix differs from that of the whole data set.

system: MIWI (PIWIL1) piRISC loaded with Kctd7 piRNA (30 nt); assay: pre-steady-state target cleavage rate (min^-1); MIWI and MILI are mouse PIWI proteins and EfPiwi is from a freshwater sponge; tags in brackets are library labels; higher = faster piRNA-guided slicing of the target; settings: guide: Kctd7 piRNA 5'p-UGUUAAUCUCUCAGAGAAGGUGACAGUGAU; auxiliary factor: 500 nM mouse GTSF1
How it was run: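 Cleave-'n-Seq: 1 nM active affinity-purified piRISC with one synthetic guide and 0.1 nM transcribed, DNA-blocked target RNA library were mixed, with or without 500 nM GTSF1 partner protein, in HEPES–potassium acetate buffer at 33 °C for 0–8 or 0–960 min. Uncleaved targets were sequenced and normalised to depth and to weakly complementary targets, three trials were pooled, and k3 was capped at 0.0001 min^-1. The pre-steady-state cleavage rate was fitted […].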

Row | Sequence | pre-steady-state target cleavage rate
1 | UAGUGUGUCACCUUCUCUGAGACAUUAAGA | 0.0149 ± 0.0067
2 | UAGUGUCUCACCUUCUCUGAGACAUUAACA | 0.0137 ± 0.0061
3 | UACACUGUCACCUUCUCUGAGAGAUUGAACA | 0.268 ± 0.034
4 | UAGACUGUCAGCUUCACUGAGAGAUUAACA | 0.464 ± 0.022
5 | UAGACAGUCACCUUCUCUGAGAGAUAUUGA | 0.0688 ± 0.018
6 | UAGUGACUCACUUUCUCUGAGAGAUUAACA | 0.635 ± 0.031
7 | UAGUGUGUCACCUUCUCUGAGAGACUUAACA | 0.181 ± 0.023
8 | AUCACUGUCACCUUCUCUGAAGAUUAACA | 0.0504 ± 0.012
9 | UAGUGACAGACCUUACUCUGAGAGAUUAACA | 0.0198 ± 0.0041
10 | UUCUCUGUCACGUUCUCUGAGAGAUUAACA | 0.564 ± 0.026
11 | AUCUGUGUCACCUUCUCUGAGAGAUUUUGA | 0.0788 ± 0.011
12 | UAGUGACAGACCUUUCUCUGAGAGAUUAACA | 0.0379 ± 0.0079
13 | UAGUGACACAGCUUCUCUGAGAGUUUAACA | 0.0412 ± 0.0084
14 | UAGUGACACACCAUCUCUGAGACAUUAACA | 0.0487 ± 0.0088
15 | UAGUGACAGACCUUCUGUGAGAGAUAAACA | 0.0234 ± 0.0052
16 | UAGUCUGUCUCCUUCUCUGAGAGAUAAACA | 0.346 ± 0.069
17 | UACACUGUCACCUUCUCUGAGACUUUAACA | 0.0647 ± 0.017
18 | UACAGACUCACCUUCUCUGAGAGAUUAAGA | 0.165 ± 0.025
19 | UAGUGUGUCACCUUCUCUGAGAGAUUAAUA | 0.413 ± 0.054
20 | UAGUGACAGUGCUUCUCUGAGAGAUAAAGA | < 0.0001
21 | UACACUGUCUCCUUCUCUGAGAGAAUAACA | 0.236 ± 0.035
22 | UACACUGUCACCUUCUCUGAGAGAUUACA | 0.339 ± 0.063
23 | AUCACUGUCAGGAUCUCUGAGAGAUUAAGA | 0.013 ± 0.0039

Row | Sequence | pre-steady-state target cleavage rate
24 | UAGUGACAGUGGAUCUCUGUCUCUAAUUGA [g12:g17:cont:t1A] | < 0.0001
25 | UAGUGUGUCACGUUCUCUGAGAGAUAUUGA | 0.00554 ± 0.0043
26 | UAGUGACUCACCUUCUCUGACAGAAUAACA | 0.0197 ± 0.0048
27 | UAGUGACUCACGUUGUCUGAGAGAUUAACA | 0.0985 ± 0.012
28 | UAGUGACAGUGCUUCCUCUGAGAGAUUAACA | 0.0616 ± 0.0068
29 | UAGUGACACAGCCUUCUCUGAGAGAUUAACA | 0.174 ± 0.016
30 | UAGUCUGUCUCCUUCUCAGAGAGAUUAACA | 0.311 ± 0.021
31 | UAGUGUGUCAGCUUCUCUGUGAGAUUAACA | 0.193 ± 0.011
32 | UACAGUGUCACCUUCUCUGAGAGUUUAACA | 0.613 ± 0.094
33 | UAGUGAGUGACCUUCUCUGAGUGAUUAACA | 0.0233 ± 0.0097
34 | UAGUCUGACACCUACUCUGAGAGAUUAACA | 0.381 ± 0.03
35 | UUCUCUGUCACCUUCUCUCAGAGAUUAACA | 0.105 ± 0.0091
36 | UUCAGUGUCACCAUCUCUGAGAGAUUAACA | 0.585 ± 0.037
37 | UAGUGUGUCAGCUUCUCUGAGAGAUUAACA | 0.561 ± 0.032
38 | UAGUGACACACCUUCACUGAGAGAUUAAGA | 0.0185 ± 0.01
39 | UAGACUGUCACCUUCUUUGAGAGAUUAACA | 0.58 ± 0.034
40 | UAGUCUGUCUGGUUCUCUGAGAGAUUAACA | 0.0485 ± 0.0058
41 | AACACUGUCACCUUCUCUGAGAGAUUAAGA | 0.189 ± 0.026
42 | UACACUCUCACCUUCUCUCAGAGAUUAACA | 0.116 ± 0.012
43 | UAGUGACAGUCCUUCUCUGAGAGAUAAACA | 0.0209 ± 0.0048
44 | UACACUGUCACCUUCUCUGAGAGAAAUACA | 0.0416 ± 0.013
45 | AUGACUGUCACCUUCACUGAGAGAUUAACA | 0.541 ± 0.032
46 | UAGACUGUCACCUUCUCUGAGAGAUAUUGA [g6:g27:cont:t1A] | 0.00602 ± 0.0037

Row | Sequence | pre-steady-state target cleavage rate
47 | UUCACUGACACCUUCUCUGAGAGAUUUUGA | 0.164 ± 0.033
48 | AUCACUGUCACCUUGUGUGAGAGAUUAACA | 0.199 ± 0.017
49 | UAGUGUCUCACCUUCUCUGAGAGAUUAUGA | 0.0314 ± 0.0099
50 | UACACUGUCAGGUUCUCUGAGAGAUUAUGA | 0.00793 ± 0.0032
51 | UAGUGAGUCCCCUUCUCUGAGAGAUUAACA | 0.583 ± 0.049
52 | UAGUCUGUCACCUUCUCACUGAGAUUAACA | 0.00623 ± 0.003
53 | UAGUCUGACACCUUCUCUGUGAGAUUAACA | 0.161 ± 0.01
54 | UAGUGACUCACCUUCUCUGAGAGAUUGAACA | 0.307 ± 0.05
55 | AACACAGUCACCUUCUCUGAGAGAUUAACA | 0.736 ± 0.032
56 | UUCACUGUCACCUUCUCUGAGAGUAUUAACA | 0.547 ± 0.057
57 | UAGACUGUCACCUUUUCUGAGAGAUUAACA | 0.732 ± 0.034
58 | UAGUGUGUCAUCCUUCUCUGAGAGAUUAACA | 0.207 ± 0.022
59 | UAGUGAGACACCUUCUCUGAGAGAUAAACA | 0.189 ± 0.02
60 | UAGUGUGUCACCUUCUCAGAGAGAUUUUGA | 0.0712 ± 0.021
61 | UACACUGUCACCUUCUCUGAGACAUUAUGA | 0.0104 ± 0.0049
62 | UAGUGACUCACCUUCUCUGAGAGAUUAAA | 0.219 ± 0.036
63 | UAGUGAGUCACCUUCUCUGACAGAUUUACA | 0.0602 ± 0.018
64 | AACACUGUCACCUUCUCAGAGAGAUUAACA | 0.429 ± 0.024
65 | UACACUCUCACCUUCUCUGAGACAUUAACA | 0.294 ± 0.023
66 | UAGUGACUCUCCAUCUCUGAGAGAUUAACA | 0.00895 ± 0.0026
67 | UAGUGACAGUGGAACUCUGAGAGAUUAAGCA | < 0.0001
68 | UAGUGACUCACCUUCACUGAGAGAUAAACA | 0.0971 ± 0.015
69 | UAGUGACUCACCUUCUCUGAGAGAUUACACA | 0.19 ± 0.043

Row | Sequence | pre-steady-state target cleavage rate
70 | UAGUCUGACACCUUCUCUGAGAGAUAAACA | 0.273 ± 0.026
71 | UUCACUGUCACGUUCUCUGAGAGAAUAACA | 0.236 ± 0.038
72 | UAGUGACACACCUUCUCUGACAGAUUAACA | 0.22 ± 0.028
73 | UAGUGACAGUCCUUCUCUGAGCGAUUAACA | 0.00949 ± 0.0032
74 | UAGUGACUCAGCCUUCUCUGAGAGAUUAACA | 0.101 ± 0.0099
75 | UAGUGAGUCACCUUCUCUGAGAGUAAUUGA [g8:g24:cont:t1A] | 0.0181 ± 0.008
76 | UAGUGAGUCACCUAGUCUGAGAGAUUAACA | 0.276 ± 0.02
77 | UAGUGUGUCACCUUCUCUGAGAGAAAAUGA | 0.0301 ± 0.0098
78 | UAGUGUGUCACCUUCUGUGAGAGAAUAACA | 0.0788 ± 0.011
79 | UAGUGAGUCACUUUCUCUGAGAGAUUAACA | 0.641 ± 0.029
80 | UAGUGUCUCACCUUCUCUGAGAGAUUAACA | 0.658 ± 0.043
81 | UUCACUGUCACCUUCACUGAGAGAUUUACA | 0.353 ± 0.049
82 | UACACAGUCAGCUUCUCUGAGAGAUUAACA | 0.637 ± 0.028
83 | AUCAGUGUCACCUUCUCUGAGAGAUUAAGA | 0.143 ± 0.03
84 | AUCACUGUCACCUUCUCUGAGAGUAAAACA | 0.125 ± 0.024
85 | AUCACUGUCACCUUCUCUGAGAGAUUAAA | 0.223 ± 0.029
86 | UAGUGACAGUCCUUCUCUGAGAGCUUAACA | 0.0171 ± 0.0038
87 | UAGUGAGUCACCUACUCUGAGUGAUUAACA | 0.024 ± 0.0056
88 | UAGUGACACACCUUCUCAGAGAGAUUUUGA | 0.00465 ± 0.0033
89 | UAGUGAGUCACCUUCUCAGAGAGAUUAACA | 0.514 ± 0.035
90 | UAGACUGUCACCUUCUCUGAGAGAUAUAACA | 0.344 ± 0.034
91 | UUCACUGUCACCAUCUCUGAGAGAUUUACA | 0.274 ± 0.035
